# Laboratory results as given in the BET-seq Pho4 binding data (Le et al. 2018).
# The other results are listed elsewhere or left out. Values were computed here from the reads of four pooled replicates and scatter widely.
# Target: T1, Pho4 (S. cerevisiae) (UniProt P07270)
# T1 sequence: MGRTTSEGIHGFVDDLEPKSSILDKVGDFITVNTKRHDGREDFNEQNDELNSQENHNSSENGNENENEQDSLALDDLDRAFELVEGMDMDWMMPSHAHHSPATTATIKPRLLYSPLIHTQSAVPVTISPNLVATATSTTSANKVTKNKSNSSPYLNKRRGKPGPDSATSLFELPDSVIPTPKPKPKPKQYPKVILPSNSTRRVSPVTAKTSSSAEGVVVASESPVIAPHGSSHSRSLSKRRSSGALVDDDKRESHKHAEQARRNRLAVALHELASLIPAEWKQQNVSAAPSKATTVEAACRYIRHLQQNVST
# Test: relative binding free energy (BET-seq); higher = weaker binding
# Conditions: reference: library average
row,Sequence,relative binding free energy [kcal/mol]
1,GGTGTCACGTGCGTAG,0
2,CGAGTCACGTGGGCTT,0
3,GAGTTCACGTGGATTA,0.33
4,CGTTTCACGTGAGAGT,0.39
5,CTGGGCACGTGGTTCG,-0.06
6,AGGGGCACGTGGGTAT,-0.18
7,TGTGTCACGTGCGAGG,-0.06
8,TGGAGCACGTGCTTCG,-0.01
9,AGAGGCACGTGGTTGA,-0.01
10,AGTGGCACGTGAGTAT,0.18
11,TGAGGCACGTGAAAGT,0.21
12,CATGTCACGTGGTCAG,0.07
13,CTGTGCACGTGTGCTG,-0.02
14,GGGGGCACGTGATGAA,0.08
15,GCGGACACGTGTATTG,0.15
16,ATGGGCACGTGCGAAG,-0.08
17,TCAGTCACGTGGGGGC,0.02
18,TTCATCACGTGTGGTT,0.29
19,TGAGGCACGTGGATGT,0.1
20,GCATGCACGTGTGTTT,0.08
21,TATATCACGTGTGGAC,0.18
22,GGGTGCACGTGGACTG,0.05
23,TTGGTCACGTGTAAGG,0.26

row,Sequence,relative binding free energy [kcal/mol]
1,AAGGGCACGTGAGATG,-0.01
2,GAGTTCACGTGATCGT,0.42
3,TAAGTCACGTGCTTGG,0.12
4,CTTAGCACGTGTGAAG,0.02
5,TGTTGCACGTGGTGAA,0.02
6,AAAGTCACGTGTATAA,0.17
7,GGATCCACGTGGATGT,0.1
8,TAGAGCACGTGTGGAT,-0.01
9,TTTGCCACGTGGTCTT,-0.18
10,AGATGCACGTGTACTG,0.09
11,GTTCACACGTGTTTTT,0.22
12,GAAGCCACGTGGGGGT,-0.24
13,GGAAACACGTGTGAGT,0.01
14,GTAGACACGTGTCTTG,0.09
15,GTTCTCACGTGAATGT,0.54
16,TTGTACACGTGAGGGG,0.39
17,TAAGGCACGTGGGAAT,-0.22
18,TAGTTCACGTGTATAT,0.22
19,TAAAACACGTGGCGGT,-0.13
20,TAGACCACGTGGTTTT,0
21,GTAAGCACGTGTGCGT,-0.06
22,TTGTCCACGTGGCGGA,0
23,GCCTGCACGTGATGGG,0.19

row,Sequence,relative binding free energy [kcal/mol]
1,CGTTACACGTGCTAGG,0.08
2,CTGTTCACGTGGGGAA,0.13
3,ATTCTCACGTGTGGTT,0.22
4,GGTGCCACGTGTCGGG,0.04
5,ATTCGCACGTGGGGAG,-0.02
6,TGGGACACGTGCTGGA,0.03
7,TACCGCACGTGTTGTG,0
8,TTGTGCACGTGACTTT,0.06
9,TTGGGCACGTGAAAGG,0.07
10,TGTGCCACGTGGGCGG,-0.2
11,TTCGTCACGTGTATCA,0.13
12,TTTGCCACGTGGCGTG,-0.16
13,GGTTGCACGTGGATTG,-0.01
14,GACTTCACGTGTGAGG,0.27
15,GTTCTCACGTGTGAGT,0.38
16,GGTGTCACGTGAAGCT,0.53
17,AAGCTCACGTGTTGTT,0.12
18,TTACACACGTGTAGTG,0.14
19,AATGGCACGTGTTATA,-0.08
20,ATGATCACGTGTTTAG,0.05
21,TCATTCACGTGGGTTT,0.06
22,TGTACCACGTGTGGAT,0
23,CGATGCACGTGGTGGT,-0.16

row,Sequence,relative binding free energy [kcal/mol]
1,CTCTGCACGTGGTGGG,-0.02
2,ATGGTCACGTGTTATC,0.08
3,CGGTGCACGTGGTATG,-0.09
4,CGGAACACGTGATGGT,0.26
5,CTGTGCACGTGTAGGC,-0.03
6,AGACGCACGTGTGTTG,-0.16
7,TGGGACACGTGGTAAT,0.06
8,GAGGACACGTGTTATG,0.09
9,AAGTGCACGTGTAGGC,-0.03
10,TACGACACGTGGGGTG,-0.08
11,GGGAGCACGTGGCTGA,-0.15
12,GGCATCACGTGTGCGG,0.13
13,AAGATCACGTGCGGGA,0.24
14,CGTGGCACGTGTGGGG,-0.11
15,GTAATCACGTGTAGTG,0.21
16,ATGTACACGTGTGGCT,0.16
17,AGTGGCACGTGTTGGG,-0.02
18,TTAGCCACGTGTGGGT,-0.16
19,TGGTTCACGTGCGGAG,0.13
20,GTCAGCACGTGGGGGG,-0.15
21,ATTGGCACGTGACATG,-0.01
22,TAGTTCACGTGCGTGA,0.18
23,GAAGTCACGTGGGATG,0.03

row,Sequence,relative binding free energy [kcal/mol]
1,GGGAACACGTGGGGAA,0.09
2,GTATTCACGTGTAATG,0.24
3,TTTCGCACGTGTTTGC,-0.03
4,GTGTACACGTGGCGTG,0.07
5,ATGGTCACGTGTAGCG,0.15
6,CGCAGCACGTGGTGGG,-0.3
7,CGAGGCACGTGGAGCG,-0.09
8,TCGATCACGTGTAGGT,0.17
9,TTTTGCACGTGAAATG,0.28
10,TGCTTCACGTGTGAGT,0.26
11,TTTTCCACGTGAATAG,0.34
12,GTTTTCACGTGGGCAA,0.32
13,AGTGACACGTGTCGGG,-0.06
14,TAGGACACGTGGTTTT,0.12
15,TTTGTCACGTGTGATG,0.23
16,TGGTTCACGTGTTTGC,0.2
17,GGGGTCACGTGAGTAC,0.4
18,ACGCTCACGTGGGGGT,0
19,TCAGTCACGTGTGCGG,-0.06
20,GTTGGCACGTGGCTTT,-0.05
21,GTGAGCACGTGGAATG,0.15
22,TGGTTCACGTGTCTCG,0.23
23,AACTTCACGTGGATGG,0.3
